From PubChem BioAssay AID1346428 (National Center for Advancing Translational Sciences (NCATS), 2018) come the findings set out here.

Among all 48,000 compounds or so, about 1,200 (2.5%) were called active. Another 2% or so got no clear call; they are omitted.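 The calls were made as follows: active = activation of at least 60% and not above a set upper limit (about 1 call in 100 departs from these limits); inconclusive = activation of 40% to 60%, or above that upper limit; inactive = activation under 40%.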 This is one part of the list.

The target in the assay is Probable G-protein coupled receptor 32 (Homo sapiens) (UniProt O75388). As to the kind of experiment: qHTS for Agonists of Human Resolvin D1 Receptor DRV1. Also: 0% is about no effect. Particulars: CHO-K1 GPR32 beta-arrestin PathHunter luminescence, 90 min; at 76.9 µM; active compounds read high; zero percent set by DMSO-only wells. In outline: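 CHO-K1 cells stably expressing ProLink-tagged GPR32 and Enzyme Activator-tagged beta-arrestin were seeded at 2,500 cells/well overnight, exposed to compounds for 90 min at 37 °C, then read by beta-Gal complementation chemiluminescence after 1 h detection reagent.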
Chain of UniProt O75388 (O75388 whole entry, looked up): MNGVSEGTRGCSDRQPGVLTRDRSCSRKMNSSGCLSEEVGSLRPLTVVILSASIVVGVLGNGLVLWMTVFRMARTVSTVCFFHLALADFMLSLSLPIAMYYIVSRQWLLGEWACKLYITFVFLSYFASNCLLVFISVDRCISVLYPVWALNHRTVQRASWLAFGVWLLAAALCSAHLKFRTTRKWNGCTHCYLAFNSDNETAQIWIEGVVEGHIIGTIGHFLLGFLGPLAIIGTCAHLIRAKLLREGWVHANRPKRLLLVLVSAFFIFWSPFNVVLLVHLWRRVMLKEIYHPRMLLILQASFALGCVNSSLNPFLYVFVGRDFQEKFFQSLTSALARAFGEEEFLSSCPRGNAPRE
As for `COc1ccc(C2=Nc3ccc(F)cc3NC(c3cccc(C(F)(F)F)c3)=N2)cc1`, the activation is inactive: -4.23%. Take `Cc1ccc(Cn2c(CNC(=O)CCc3ccccc3)nc3cccnc32)cc1`: the activation was inactive: -18.1%. Turning to `Cc1cccc(N2CCN(Cc3nnc(-c4ccccc4C)o3)CC2C)c1` (centres undefined), the activation is inactive: -16.1%. `CCc1ccc2ncc(C(=O)c3ccc(C)c(C)c3)c(N3CCC(C(N)=O)CC3)c2c1`: the activation was inactive: -11.7%. On to `COC(=O)c1ccccc1NC(=O)c1cnc(Nc2ccc(OC)cc2)c2ccccc12`, for which the activation is inactive: -9.37%. For `CCCCOc1cccc(C(=O)N(Cc2ccc(N(C)C)cc2)C2CCS(=O)(=O)C2)c1` (centres undefined), the activation was inactive: -36.2%. As for `Cc1cc(-c2nc3ncccc3o2)ccc1NC(=O)c1ccccc1Br`, the activation was inactive: -7.66%. Consider `O=C(Cn1cnc(S(=O)(=O)N2CCCC2)c1)Nc1cccc(Br)c1`, for which the activation is inactive: -18.4%. In the case of `Cc1ccc(CCNC(=O)CCCn2c(=O)c3ccccc3n(Cc3ccccc3C)c2=O)cc1`, the activation is inactive: -18.8%.

On to `O=C(COc1ccc(F)cc1)NCC(c1ccc(Cl)cc1)N1CCCCC1` (centres undefined), for which the activation is inactive: -13.3%. For the compound `CC(=O)N1c2ccc(S(=O)(=O)N3CCCCCC3)cc2CC1C(=O)NCc1ccccc1C` (centres undefined), the activation was inactive: 0%. As to `NC(CCCP(=O)(O)O)C(=O)O` (centres undefined), the activation is inactive: 0.374%. To `COc1cc(OC)c(-c2cc(C(=O)NCc3ccc(F)cc3)c3c(-c4ccccc4)[nH]nc3n2)cc1OC` belongs inactive: -21.2%; to `COc1ccc(CCNC(=O)Cn2c(=O)n(-c3ccccc3)c(=O)c3c(C)c(C)sc32)cc1OC`, inactive: -0.407%; to `Cc1ccc(-c2nc3ncccc3o2)cc1NC(=O)c1ccc(-c2ccc(Cl)cc2)o1`, inactive: -4.46%. For `Cc1ccc(N(Cc2cccs2)C(=O)c2ccccc2Cl)cc1`, the activation is inactive: -17.9%. With `Cc1cccc(N2CCN(S(=O)(=O)c3csc(C(N)=O)c3)CC2)c1C`, the activation is inactive: 7.62%. Consider `Cc1cccc(NC(=O)CSc2nc(-c3ccco3)cc(C(F)(F)F)n2)c1C`, for which the activation is inactive: -3.97%. `CCOC(=O)c1ccc(NC(=O)c2cc3sccc3n2Cc2ccc(Cl)cc2)cc1`: the activation was inactive: -4.83%. As to `O=C(c1ccccc1Cl)N1CCCCC1CCN1CCCCC1` (centres undefined), the activation is inactive: -4.93%.

Consider `O=C(Nc1nnc2n1CCS2)c1ccc(F)cc1F`, for which the activation is inactive: -32.7%. Take `COc1ccc(C)cc1NC(=O)Cn1c(=O)n(Cc2nc(C)no2)c(=O)c2ccccc21`: the activation was inactive: -20.2%.

For the compound `COc1ccc(NC(=O)C(C)N(c2ccccc2)S(C)(=O)=O)cc1` (centres undefined), the activation was inactive: 1.24%. `CCOc1ccccc1NC(=O)C(CC)Sc1nc2ccncc2[nH]1` (centres undefined): the activation is inactive: -8.99%. As for `COc1ccc(CCNC(=O)c2ccc(Cn3c(=O)c4ccccc4n(Cc4cccc(Cl)c4)c3=O)cc2)cc1OC`, the activation is inactive: -1.84%. Consider `CCOc1ccc(CN2CCc3nc(Nc4ccc5c(c4)OCCO5)ncc3C2)cc1`, for which the activation is inactive: 5.56%. For `Cc1nn2c(=O)cc(COC(=O)c3ccccc3NC(=O)C(C)Oc3ccccc3)nc2s1` (centres undefined), the activation is inactive: -4.95%. To `CC(C)c1ccc(NS(=O)(=O)c2ccc3nc(-c4ccccc4)[nH]c3c2)cc1` belongs active: 110%; to `COc1ccc(NCc2cc3cc4c(cc3n(CC(=O)Nc3cc(C)ccc3C)c2=O)OCCO4)cc1`, inactive: -26.4%. Take `Cn1c(=O)c2cc(C(=O)NCCCN3CCN(c4ccccc4F)CC3)sc2c2ccccc21`: the activation was inactive: -0.668%.

Consider `Cc1ccc(-n2c(=O)c3ccc(C(=O)NCc4ccco4)cc3n(Cc3ccccc3C#N)c2=O)cc1`, for which the activation is inactive: -73.5%.

Regarding `CCOc1ccc(C2CC(=O)N(c3cccc(F)c3)C3=C2C(=O)OC3)cc1` (centres undefined), the activation is inactive: -5.8%.

Regarding `Cc1ccc(-n2nc3c(=O)n(CCCC(=O)NCCc4ccccc4Cl)nc(C)c3c2C)cc1`, the activation was inactive: -18.6%.

Consider `CCN(CC)c1cc2c(cc1F)c(=O)c(S(=O)(=O)c1cccc(C)c1)cn2C`, for which the activation was inactive: -11.7%.

For the compound `Cc1ccc(-c2cn(-c3cccc(Cl)c3)c(S(=O)(=O)CC(=O)Nc3ccccc3F)n2)cc1`, the activation is inactive: -2%.

Take `COc1ccc(NC(=O)c2ccc3c(c2)sc2nc(-c4ccc(OC)cc4)cn23)cc1`: the activation is inactive: -3.9%. Consider `Cc1ccc(NC(=O)Cn2c(=O)n(Cc3ccco3)c(=O)c3ccccc32)c(C)c1`, for which the activation was inactive: -5.02%. For `Cc1cccc(NC(=O)CSc2nc3ccccc3nc2N2CCOCC2)c1C`, the activation is inactive: 1.22%. With `CCOc1ccc(CNS(=O)(=O)c2cc3c(cc2C)NC(=O)CO3)cc1`, the activation was inactive: -11.6%. To `CC(=O)c1ccc(N2CCN(C(=O)CCCCn3c(=O)[nH]c4ccsc4c3=O)CC2)cc1` belongs inactive: 27.1%; to `COc1ccc(Cn2c(=O)c3cccnc3n(CC(=O)Nc3c(C)cc(C)cc3C)c2=O)cc1`, inactive: -5.41%; to `CCc1cnc2c(c1SCC(=O)c1ccc(Cl)cc1)c(=O)n(C)c(=O)n2C`, inactive: -7.57%. As to `CCOC(=O)c1c(-c2ccc(OC)cc2)oc2ccc(OCc3ccc(Br)cc3)cc12`, the activation was inactive: 12.1%. `O=C(Nc1cccc(C(F)(F)F)c1)c1cc(-c2ccc3c(c2)OCCO3)on1`: the activation is active: 94%.

For the compound `CCSc1nnc(NC(=O)c2cc(=O)c3cc(C)c(C)cc3o2)s1`, the activation was inactive: -15.4%. To `COc1ccc(S(=O)(=O)n2nc(C)c(S(=O)(=O)N3CCC(C)CC3)c2C)cc1OC` belongs inactive: 0.353%; to `Cc1ccc(N(CC(=O)Nc2ccc(Br)cc2)S(=O)(=O)c2cccs2)cc1`, inactive: 36.1%.

Take `CCc1ccccc1NC(=O)c1ccc2nc(C(C)C)oc2c1`: the activation was inactive: -5.99%.

For `O=C(NCCc1ccc(F)cc1)C(=O)NCC(c1ccco1)S(=O)(=O)c1cccs1` (centres undefined), the activation is inactive: -5.11%. To `CC(C)CCNC(=O)CCC(=O)NNc1nc2ccccc2c2nc(-c3ccccc3)nn12` belongs inactive: -7.75%; to `COc1cc(OC)cc(C(=O)N2CC(=O)Nc3ccc(Cl)cc3C2c2ccccc2)c1` (centres undefined), inactive: -6.95%; to `O=C(Nc1nnc2n1CCS2)c1ccccc1C(F)(F)F`, inactive: -60.3%. Regarding `O=C(Nc1ccc(Cl)c(C(F)(F)F)c1)C(Cc1ccccc1)NS(=O)(=O)c1ccc(Br)s1` (centres undefined), the activation is inactive: 26.6%. To `Brc1cccc(-c2cnn3c(-c4ccccc4)cc(-c4ccccc4)nc23)c1` belongs inactive: -19.8%.
